# Measurements reported in PubChem BioAssay AID1345083 (National Center for Advancing Translational Sciences (NCATS), 2018).
# About 6,200 (6.6%) of roughly 94,000 compounds were called active. Inconclusive results, whose numbers are uncertain, are shown with a selection of clear calls. The call rests on the fitted dose curve; in most records, active means well fitted inhibition curve with a large enough effect; inconclusive means small, poorly fitted or top-dose-only effect; inactive means flat fitted curve, though single readings scatter. A potency beside an inconclusive call is a rough fit, not a confirmed value.
# Assay: Cytotoxic Profiling in HEK 293 Cell Line of Diverse Libraries Using Quantitative High-Throughput Screening; further: nearly all actives have a fitted effect of over 60% in size
# Conditions: HEK 293 viability, ATP luminescence (CellTiter-Glo), 48-72 h; activity change, negative = cytotoxicity: at 115 µM (top of the series) unless noted; series mostly up to 115 µM
# Summary of the method: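 Cytotoxicity was scored by loss of ATP-coupled luminescence (CellTiter-Glo) in HEK 293 cells. Compound treatment ran 48 or 72 hr at 37 degree Celsius, 5% CO2, 95% humidity.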
# On the % scale 0 is the no-effect control and ±100 the full control effect; potency means the concentration at half of the fitted maximal effect; tags describe the fitted curve by direction and shape.
Structure (SMILES),Potency,outcome,"activity change, negative = cytotoxicity"
Cn1ncc2c(C(=O)NCc3ccc(F)cc3F)cc(-c3cccc(C(F)(F)F)c3)nc21,"inconclusive: 89.1 µM [inhibitor, partial curve, poor fit]",,
CCn1ccc(C(=O)N2CCC3(CC2)CN(C2CCC2)CC3CO)n1 (centres undefined),"inconclusive: 89.1 µM [inhibitor, single point]",,
O=C(NCCc1ccccc1F)c1ccc2nnc(-c3ccc(F)cc3)n2c1,"inconclusive: 44.7 µM [inhibitor, partial curve, poor fit]",,
O=C(NC1CCN(c2cc(-c3ccc(F)cc3)[nH]n2)CC1)c1ccc2c(c1)OCO2,"inconclusive: 79.4 µM [inhibitor, partial curve, poor fit]",,
COc1ccc(NC(=O)N2CCc3c(C(=O)NCc4ccncc4)cccc32)cc1,"inconclusive: 79.4 µM [inhibitor, partial curve, poor fit]",,
COC[C@@H]1CN(C(=O)c2ccc(Cl)cc2OC)C[C@H]1C(N)=O,,inactive,
CC1=C[C@@H](CNS(=O)(=O)c2ccccc2)[C@H](C(C)C)C[C@H]1CC(=O)NCc1ccccn1,,,inactive: -24.9%
O=C(NC1CCCN(c2ccc3nnc(C4CC4)n3n2)C1)c1ccccn1 (centres undefined),,,inactive: 1.46%
CC(=O)NCC1CN(S(=O)(=O)c2cccnc2)CC12CCCCC2 (centres undefined),,,inactive: -7.07%
COc1ccccc1N1CCN([C@H]2[C@@H]3OC[C@@H](O3)[C@@H](N(CC3CC3)CC3CC3)[C@@H]2O)CC1,,,inactive: -19.2%
Cc1cc2cc(-c3c(C)noc3C)nc(Nc3ccccc3)c2o1,"inconclusive: 56.2 µM [inhibitor, partial curve, poor fit]",,
O=C(C1CCN(Cc2ccccc2-c2ccccc2F)CC1)N1CCN(Cc2ccccc2)CC1,active: 35.5 µM,,
C=CCO[C@@H]1C[C@H]2C(=O)Nc3ccc(-c4ccccc4)cc3C(=O)N2C1,"inconclusive: 89.1 µM [inhibitor, partial curve, poor fit]",,
Cc1cn2nc(C(=O)NCc3cccc(Cl)c3)cc2c(N2CCCC2)n1,"inconclusive: 79.4 µM [inhibitor, single point]",,
COCC(=O)N1CCN(C(=O)c2nc3cccnc3n(CC(C)C)c2=O)CC1,,,inactive: 1.12%
CCN1c2cc(C(=O)Nc3ccc(F)c(C)c3)ccc2C(=O)N2CCCCCC21 (centres undefined),active: 39.8 µM,,
COc1ccc(C(=O)N2CCCC3(CNc4ncccc4[S+](=O)([O-])N3)C2)cc1 (centres undefined),,,inactive: -1.96%
CN(Cc1ccccc1)C(=O)c1cc(-c2cccc(F)c2)nc2c1cnn2C,"inconclusive: 50.1 µM [inhibitor, partial curve, poor fit]",,
COc1ccc(-c2ccccc2C(=O)NCc2ccc(F)cc2F)nn1,,,inactive: -8.71%
Cc1cccc(CNC(=O)c2cc3c(N(C)Cc4ccccc4)nc(C)cn3n2)c1,"inconclusive: 35.5 µM [inhibitor, partial curve, poor fit]",,
CCCOc1ccc(CN2CCCC(COc3ccccc3C(=O)NC3CC3)C2)cc1 (centres undefined),"inconclusive: 39.8 µM [inhibitor, full curve, poor fit]",,
COCCOc1ccc2c(n1)CCN(C(=O)Nc1ccccc1C)C2,,,inactive: 7.45%

Structure (SMILES),Potency,outcome,"activity change, negative = cytotoxicity"
Cc1nn(-c2ccccc2)c2c1C(C)N(C1CCN([S+](=O)([O-])c3cccs3)C1)C2=O (centres undefined),"inconclusive: 31.6 µM [inhibitor, full curve]",,
CCOc1cccc2c1OC[C@@H]1CN(CCOC)C(=O)CCN(C(=O)CC)[C@H]21,,,inactive: -4.4%
N#Cc1cccc(-c2c(C(=O)NC3CCCCCC3)nc3sccn23)c1,,inactive,
COc1ccccc1CN1CCC2(CC1)OC(=O)N(Cc1ccc(NC(C)=O)cc1)C2(C)c1ccccc1 (centres undefined),"inconclusive: 44.7 µM [inhibitor, partial curve]",,
O=C(NCCc1c[nH]c2ccccc12)c1cnc2c(c1)N([S+](=O)([O-])c1cccnc1)CCC2,"inconclusive: 79.4 µM [inhibitor, single point]",,
O=C(COc1ccccc1)NC[C@H]1COCc2nc3cc(F)ccc3n21,active: 79.4 µM,,
O=C(NCCc1ccc(Cl)cc1)c1cc(-c2cnccc2Cl)c2cccn2n1,"inconclusive: 28.2 µM [inhibitor, full curve]",,
COc1ccc(Br)c(C(=O)N[C@@H]2C=C(C(=O)N[C@H](CC(C)C)C(N)=O)C[C@@H](O)[C@@H]2O)c1,,inactive,
Cc1cc(S(=O)(=O)N[C@H]2[C@H]3CCO[C@H]3[C@@H]2N2CCCCC2)n(C)n1,,,inactive: 1.4%
Cc1cccc(C(=O)N2CCCCCCNC(=O)[C@@H]3C[C@@H](C(=O)N4CCc5ccccc5C4)C[C@@H]32)c1,"inconclusive: 79.4 µM [inhibitor, partial curve, poor fit]",,
O=C(NCCc1ccccc1)Nc1cccc(-c2nnc3n2CCCC3)c1,"inconclusive: 89.1 µM [inhibitor, single point]",,
O=C1COc2ccc(-c3cn[nH]c3)nc2CN1Cc1ccc(C(F)(F)F)cc1,"inconclusive: 56.2 µM [inhibitor, partial curve, poor fit]",,
Oc1cccc(-c2cnc3n[nH]c(-c4ccccc4)c3n2)c1,"inconclusive: 141 µM [inhibitor, partial curve, poor fit]",,
COc1ccccc1OCCCN1CCN(Cc2ccccc2)CC(O)C1 (centres undefined),"inconclusive: 89.1 µM [inhibitor, single point]",,
O=C(c1cccc(F)c1)N1CCC(n2cc(-c3nc(C4CC4)no3)nn2)C1 (centres undefined),"inconclusive: 35.5 µM [inhibitor, partial curve, poor fit]",,
Cc1ccccc1C(=O)N1CCC2(CC1)NC(=O)N(c1ccc(F)cc1)N2,"inconclusive: 39.8 µM [inhibitor, full curve, poor fit]",,
O=C(NCc1ccncc1)c1ccc(Cn2ccn3nc4c(c3c2=O)CCCC4)cc1,"inconclusive: 35.5 µM [inhibitor, partial curve]",,
Cc1ccc([S+](=O)([O-])NC2CCN(Cc3ccc(-c4ccsc4)cc3)C2)cc1 (centres undefined),active: 44.7 µM,,
O=C(O)C1Cc2nc[nH]c2CN1C(=O)c1cccc(-n2cccn2)c1 (centres undefined),,,inactive: -7.28%
COc1ccc(-n2c(=O)c3c(n2Cc2ccccc2)CN(C(=O)c2cccc(C#N)c2)CC3)cc1,,,inactive: -11.5%
CNc1nccc(N2CCC(CC(=O)N3CCN(CCC#N)CC3)CC2)n1,"inconclusive: 50.1 µM [inhibitor, partial curve, poor fit]",,
N#Cc1ccc(C(=O)Nc2ccc3ncnc(N4CCCCC4)c3c2)cc1,"inconclusive: 50.1 µM [inhibitor, partial curve, poor fit]",,

Structure (SMILES),Potency,outcome,"activity change, negative = cytotoxicity"
Cc1c(Cl)cc(C(=O)N(C)CCC2CCOCC2)cc1Cl,"inconclusive: 56.2 µM [inhibitor, partial curve, poor fit]",,
Cc1cc2cc(-c3c(C)noc3C)nc(-c3ccc(CO)cc3)c2o1,"inconclusive: 63.1 µM [inhibitor, full curve]",,
O=C(CN1C(=O)COc2ccc(C(=O)COc3ccc(F)cc3F)cc21)Nc1ccc(F)cc1,"inconclusive: 89.1 µM [inhibitor, single point]",,
O=C(c1ccccc1)N1CCN(c2cc(-c3ccc(F)cc3)[nH]n2)CC1,"inconclusive: 50.1 µM [inhibitor, partial curve, poor fit]",,
COc1ccc(C2(C(=O)NCCc3ncc(C)n3C3CC3)CC2)cc1,"inconclusive: 89.1 µM [inhibitor, single point]",,
COc1cccc(-c2ccc(CN3CCCC3C(=O)NCC3CC3)cc2)c1 (centres undefined),active: 44.7 µM,,
CCCS(=O)(=O)NC[C@@H]1C=C(C)[C@H](Cc2nnc(-c3ccccc3F)o2)C[C@H]1C(C)C,active: 22.4 µM,,
CN(Cc1cccc2ccccc12)C1CCOc2ccccc21 (centres undefined),"inconclusive: 79.4 µM [inhibitor, partial curve, poor fit]",,
Cc1ccsc1CN(C)C(=O)C1C2C(=O)N(c3ccc(F)cc3)C[C@@]23C=C[C@@H]1O3 (some centres undefined),"inconclusive: 89.1 µM [inhibitor, single point]",,
N#Cc1ccc2nc(CO[C@H]3CN(C(=O)c4cccnc4)C[C@H]3F)[nH]c2c1,,,inactive: -12.7% [at 172 µM]
CCC(=O)N1CCOc2ccc(CN3CCc4ccccc4C3)cc2C1,"inconclusive: 50.1 µM [inhibitor, partial curve, poor fit]",,
CC(=O)NC[C@H]1CCN(S(=O)(=O)c2ccc3c(c2)OCCO3)C[C@H]1N(C)C,,,inactive: -6.17%
Cc1noc(C)c1[S+](=O)([O-])N1CCCC2(CC(Cc3ccccc3)=NO2)C1 (centres undefined),"inconclusive: 89.1 µM [inhibitor, single point]",,
COc1cccc(CNC(=O)c2cn3cc(-c4ccc(C)cc4)sc3n2)c1,"inconclusive: 50.1 µM [inhibitor, partial curve, poor fit]",,
Cc1cc(C(=O)NCC(C)C)c2c(C3CCCNC3)noc2n1 (centres undefined),,,inactive: -10.9%
O=C1CCC2(CCCN(C(=O)c3ccc(=O)[nH]c3)C2)CN1CCc1cnc[nH]1 (centres undefined),"inconclusive: 89.1 µM [inhibitor, single point]",,
Cn1ccc(NC(=O)C2(C)CCCc3cnc(NCc4ccccc4)nc32)n1 (centres undefined),"inconclusive: 100 µM [inhibitor, partial curve, poor fit]",,
COc1ccc(C(=O)N2C[C@@H]3OCC(=O)N(Cc4ccc(OC(F)(F)F)cc4)[C@@H]3C2)cc1,,,inactive: -23.5%
Clc1ccc(-c2cnc([C@@H]3COCCN3C3CCNCC3)[nH]2)s1,"inconclusive: 112 µM [inhibitor, partial curve, poor fit]",,
Cc1ccc(CN2C(=O)[C@@H]3C[C@@H](O)CN3C3(CN(CCC(C)C)C3)C2=O)o1,,,inactive: 0.0002% [at 172 µM]
